Several values for one entry are separate records, joined by “and”; a condition that tells them apart may be missing. Identical values can stand only once. Among all 420,000 compounds or so, about 64,000 (15%) were called active. The inconclusive results got no clear call from the source; some entries with a clear call stand among them for comparison. Calls follow the shape of the dose curve; as a rule, active = well fitted inhibition curve with a large enough effect; inconclusive = small, poorly fitted or top-dose-only effect; inactive = flat fitted curve, though single readings scatter. Where the call is inconclusive, the potency comes from a doubtful curve fit.
Test: qHTS for Inhibitors of human tyrosyl-DNA phosphodiesterase 1 (TDP1): qHTS in cells in absence of CPT; also: nearly all actives have a fitted effect of over 55% in size
Details: DT40 Tdp1-/- hTDP1 cells, no CPT, ATP luminescence, 48 h; activity change, negative = growth inhibition: at 46.2 µM (top of the series) unless noted
Procedure, shortened: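 Growth kinetics read by CellTiter-Glo luminescence after ≥48 hr at 37 °C. Cells: DT40 Tdp1-/- stably carrying human TDP1, 400 per well, compound exposure in the absence of CPT (DMSO vehicle).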
% is scaled to controls: 0 for no effect and ±100 for the full control effect; potency is read from the fitted curve at half-maximal effect; tags tell the direction and shape of the fitted curve.

| Compound | Potency | activity change, negative = growth inhibition |
| --- | --- | --- |
| COc1ccc(-c2nc3ccccc3c(=O)n2CCc2ccc(O)cc2)cc1 | active: 9.2 µM |  |
| Cc1ccc(NC(=O)CSc2ccc3nnc(-c4cccnc4)n3n2)cc1 | inconclusive: 20.6 µM [inhibitor, single point] |  |
| CCC(Oc1ccc2c(c1)C(=O)CC(C)(C)O2)C(=O)NCCN1CCCCCC1 (centres undefined) | inconclusive: 35.5 µM [inhibitor, single point] |  |
| CC(NC(=O)CSc1nc(-c2cccc(Cl)c2)nc2cc(=O)[nH]n12)c1nc2ccccc2n1C (centres undefined) | inactive |  |
| CCCCN(Cc1cc2cc(OC)ccc2[nH]c1=O)C(=O)c1ccco1 | inconclusive: 29.1 µM [inhibitor, single point] |  |
| COc1ccccc1-c1cc(C(=O)Nc2sc3c(c2C#N)CCC(C)C3)c2ccccc2n1 (centres undefined) | inconclusive: 29.1 µM [inhibitor, single point] |  |
| Cc1cc(NC(=O)COc2ccc3c(C)c(C)c(=O)oc3c2)no1 | inactive |  |
| Cc1ccc(N2CC(C(=O)Nc3ccccc3C(=O)NC3CCCCC3)CC2=O)cc1C (centres undefined) | inconclusive: 9.2 µM [inhibitor, partial curve, poor fit] |  |
| CC(=C/C(=O)O)/C(=C/c1ccccc1)C(=O)O | inactive |  |
| Cc1ccc(C(=O)NNS(=O)(=O)c2ccc(F)cc2)cc1 | inactive |  |
| Cc1ccc(Cn2c(CNC(=O)Cc3cccc([N+](=O)[O-])c3)nc3cccnc32)cc1 | inconclusive: 29.1 µM [inhibitor, single point] |  |
| CCCOc1ccc(NC(=O)CC2C(=O)N(c3ccc(F)cc3)C(=O)N2CC(C)C)cc1 (centres undefined) | inconclusive: 14.6 µM [inhibitor, partial curve, poor fit] |  |
| CS(=O)(=O)N(CCc1ccccc1)CC(=O)NCc1ccncc1 | inactive |  |
| CCN(CC)S(=O)(=O)c1ccc(N2CCOCC2)c(NC(=O)Cc2ccc(Cl)cc2)c1 | inconclusive: 23.1 µM [inhibitor, single point] |  |
| O=C(NCc1cccs1)C1CCN(c2ccc(S(=O)(=O)N3CCOCC3)cc2Cl)CC1 | active: 2.59 µM |  |
| COc1ccccc1/C=C/C(=O)OCC(=O)N1CCN(S(=O)(=O)c2ccc(C)cc2C)CC1 | inconclusive: 25.9 µM [inhibitor, single point] |  |
| CC(C)[C@H](NC(=O)c1ccccc1F)C(=O)OCC(=O)NC(=O)NC1CCCCC1 | inactive |  |
| CCc1ccc(-c2cc(C)no2)cc1S(=O)(=O)Nc1cc(OC)c(OC)c(OC)c1 | active: 16.4 µM |  |
| CCOc1ccc(NC(=O)CC2NCCNC2=O)cc1 (centres undefined) | inactive |  |
| CCOC(=O)c1cc(CC)sc1NC(=O)c1cccc(N2C(=O)CCC2=O)c1 |  | inconclusive: -35.4% [inhibitor] |
| Cc1ccc2c(c1)sc1nc(=O)n(-c3ccc(Cl)c(Cl)c3)c(=O)n12 | inconclusive: 18.4 µM [inhibitor, partial curve, poor fit] and inconclusive: 14.6 µM [inhibitor, partial curve] |  |
| COc1ccc(C2=C(C)C(=NCc3ccc(OC(C)C)cc3)NS2(=O)=O)cc1 | inconclusive: 16.4 µM [inhibitor, single point] |  |
| CC(C)(C)OC(=O)N1CCc2onc(-c3ccc(Cl)cc3)c2C1=O | inconclusive: 9.2 µM [inhibitor, partial curve] |  |

| Compound | Potency | activity change, negative = growth inhibition |
| --- | --- | --- |
| Cc1ccc(-c2csc(-c3c[nH]c4ccccc34)n2)cc1 | inconclusive: 29.1 µM [inhibitor, single point] |  |
| COc1cc(C(=O)N2CCC(c3nc4ccccc4s3)CC2)cc(OC)c1OC | active: 20.6 µM |  |
| Cc1ccc(-n2nc(C)c3c(C)c(CCC(=O)Nc4ccc(CN5CCCC5)cc4)c(C)nc32)cc1 | active: 11.6 µM |  |
| C=CCn1c(SCC(=O)Nc2ccc3c(c2)OCO3)nnc1-c1ccccc1OC | inconclusive: 23.1 µM [inhibitor, single point] |  |
| Cc1cccc(NC(=O)CCc2c(C)nn(-c3ccc(N4CCOCC4)nn3)c2C)c1 | inactive |  |
| CCCCOc1ccc(CNC(=O)C2CCCN(c3nnc(-n4c(C)ccc4C)s3)C2)cc1 (centres undefined) | inconclusive: 10.3 µM [inhibitor, partial curve] |  |
| Cc1ccc2nc(SCC(=O)c3ccc4c(c3)NC(=O)CO4)[nH]c2c1 | inconclusive: 29.1 µM [inhibitor, single point] |  |
| C/C(=C\c1ccc(Cl)cc1)C(=O)c1c(C)cc(C)[nH]c1=O | inconclusive: 23.1 µM [inhibitor, single point] |  |
| COCc1ccc(CN2CCCC(CO)(Cc3ccccc3C)C2)o1 (centres undefined) | inconclusive: 29.1 µM [inhibitor, single point] |  |
| COc1cccc(-c2cc(-c3cccnc3)nc(N)c2C#N)c1 | inactive |  |
| CCOc1ccc(Br)cc1S(=O)(=O)Nc1ccc(C(=O)Nc2ccc(C)cc2)cc1 | inconclusive: 29.1 µM [inhibitor, single point] |  |
| CCOc1ccccc1NS(=O)(=O)c1cc2c3c(c1)CC(=O)N3CCC2 | inactive |  |
| COc1ccc(C(=O)NCCn2cc(SCC(=O)Nc3ccc(F)cc3)c3ccccc32)cc1 | inconclusive: 29.1 µM [inhibitor, single point] |  |
| CCOCCCNC(=O)C1(O)c2cc(Br)ccc2NC(=O)N1c1ccc(CC)cc1 (centres undefined) | inactive |  |
| O=C(NCc1ccccc1)C1=C[C@@H](c2ccc(Br)cc2)C[C@@H](OCc2ccc(CO)cc2)O1 | inconclusive: 29.1 µM [inhibitor, single point] |  |
| O=C(CNC(=O)c1ccccc1)Oc1cccc(Cl)c1 | inactive |  |
| COc1cc(C=C(C(C)=O)C(C)=O)ccc1O | inconclusive: 35.5 µM [inhibitor, single point] |  |
| Cc1c([N+](=O)[O-])oc2c1C(=O)NCCC2 | inconclusive: 18.4 µM [inhibitor, partial curve, poor fit] |  |
| Cn1cc(CN2CCCC(CO)(Cc3cccc(Cl)c3)C2)cn1 (centres undefined) |  | inconclusive: -34.5% [inhibitor] |
| CCNc1ccc(-c2nc(-c3ccncc3)no2)cc1[N+](=O)[O-] | inactive |  |
| CCN(CC)S(=O)(=O)c1ccc(C(=O)NC(=S)N(CCO)Cc2ccccc2)cc1 | inconclusive: 23.1 µM [inhibitor, single point] |  |
| CCN(C(=O)CSc1nc2ccccc2c(=O)n1-c1cccc(C)c1)C1CCS(=O)(=O)C1 (centres undefined) | inconclusive: 25.9 µM [inhibitor, single point] |  |
| CCOC(=O)C1(Cc2cccc(OC)c2)CCN(CC2CC=CCC2)CC1 (centres undefined) | active: 23.1 µM |  |

| Compound | Potency | activity change, negative = growth inhibition |
| --- | --- | --- |
| Cc1ccc2cc(CN(Cc3ccco3)C(=O)C3CCCCC3)c(=O)[nH]c2c1C | inconclusive: 29.1 µM [inhibitor, single point] |  |
| CCN(CC)CCN(C(=O)c1ccc2c(c1)CCCC2)c1nc2ccc(C)cc2s1 | active: 23.1 µM |  |
| Cn1c2ccccc2c2c(C(=O)NCc3ccco3)cn(C3CCCCC3)c(=O)c21 | inconclusive: 25.9 µM [inhibitor, single point] |  |
| O=C(O)CCCCCNc1nc2ncn(Cc3ccccc3)c2c(=O)[nH]1 | inconclusive: 4.61 µM [inhibitor, full curve, poor fit] |  |
| Cc1c(N=c2scc(-c3ccccc3)n2CCO)c(=O)n(-c2ccccc2)n1C | inconclusive: 25.9 µM [inhibitor, single point] |  |
| CCOC(=O)CCNC(=O)Nc1ccc2nc(C)n(Cc3cccc(Cl)c3)c(=O)c2c1 | inconclusive: 2.31 µM [inhibitor, partial curve] |  |
| CCCCC(CC)CNC(=O)CCS(=O)(=O)c1cccc2nonc12 (centres undefined) |  | inconclusive: -31.8% [inhibitor] |
| COCCSc1nnc(NC(=O)C2CC(=O)N(CCc3ccc(F)cc3)C2)s1 (centres undefined) | inconclusive: 2.91 µM [inhibitor, partial curve] |  |
| CCc1ccc(NC(=O)Cn2nnc(C(=O)NCc3ccc(OC)cc3)c2N)cc1 | inactive |  |
| Cc1nn(CCCC(=O)Nc2cccc(C(F)(F)F)c2)c(=O)c2nn(-c3ccccc3)c(C)c12 | inactive |  |
| COc1cc(-c2noc(-c3ccccc3C(=O)NCc3ccco3)n2)cc(OC)c1OC | inconclusive: 13 µM [inhibitor, partial curve, poor fit] |  |
| O=C(COc1ccccc1F)Nc1ccc2nc(SCC(=O)N3CCCC3)sc2c1 | active: 13 µM |  |
| CCOC(=O)N1N=C(C)CC1(O)c1ccccc1 (centres undefined) | inactive |  |
| Cc1nc(-c2ccc(S(=O)(=O)NCc3ccc(OC(C)C)cc3)cc2)co1 | active: 25.9 µM |  |
| CC(C)CCNC(=O)CNC(=S)N(Cc1ccccc1)Cc1cccnc1 |  | inconclusive: -39.1% [inhibitor] |
| COc1cc(C(=O)NCc2cccnc2)ccc1OCC(=O)Nc1cccc(C(F)(F)F)c1 | active: 3.66 µM |  |
| Brc1cnc(N2CCCC2)nc1N1CCCCC1 | inactive |  |
| CC1(C)CC(=O)c2cnc(N3CCN(c4ccccc4)CC3)nc2C1 | inconclusive: 16.4 µM [inhibitor, single point] |  |
| O=C(NCC(c1cccnc1)N1CCN(c2ccc(F)cc2)CC1)C1CCCCC1 (centres undefined) | inconclusive: 13 µM [inhibitor, partial curve] |  |
| CC(=O)NCCc1ccc(S(=O)(=O)N(C)C2CCS(=O)(=O)C2)cc1 (centres undefined) | inactive |  |
| O=C(Cn1cnc2c(cnn2-c2ccccc2)c1=O)Nc1ccc(S(=O)(=O)N2CCOCC2)cc1 |  | inconclusive: -31.6% [inhibitor] |
| C/C(=N/NC(=O)CN1CCN(Cc2ccccc2)CC1)c1ccc([N+](=O)[O-])cc1 | inconclusive: 8.2 µM [inhibitor, partial curve, poor fit] |  |
| NC(=O)CC(NC(=O)Cc1cccc2ccccc12)c1ccc(N2CCC(Cc3ccccc3)CC2)c([N+](=O)[O-])c1 (centres undefined) | inconclusive: 29.1 µM [inhibitor, single point] |  |

From PubChem BioAssay AID686978 (National Center for Advancing Translational Sciences (NCATS), 2013)
